The structures appear in SMILES notation. Whole data set: some 110,000 compounds, median “z-score” near -0.1, cut for the highest 2% near 2. The list shows a part of the results.

The target of this experiment is Metabotropic glutamate receptor 8 (Rattus norvegicus) (UniProt P70579). The experiment in a line: rat mGluR8 modulators via GIRK flux, primary screen, cell-based, thallium flux, HTS (AID 488969). Particulars: HEK293 rat mGluR8, GIRK (G protein-gated inwardly rectifying potassium channel) thallium flux, FluoZin2; at 10 µM; stronger effect = higher value; submaximal glutamate (EC20) added with thallium.
Sequence of UniProt P70579 (P70579 whole entry, looked up): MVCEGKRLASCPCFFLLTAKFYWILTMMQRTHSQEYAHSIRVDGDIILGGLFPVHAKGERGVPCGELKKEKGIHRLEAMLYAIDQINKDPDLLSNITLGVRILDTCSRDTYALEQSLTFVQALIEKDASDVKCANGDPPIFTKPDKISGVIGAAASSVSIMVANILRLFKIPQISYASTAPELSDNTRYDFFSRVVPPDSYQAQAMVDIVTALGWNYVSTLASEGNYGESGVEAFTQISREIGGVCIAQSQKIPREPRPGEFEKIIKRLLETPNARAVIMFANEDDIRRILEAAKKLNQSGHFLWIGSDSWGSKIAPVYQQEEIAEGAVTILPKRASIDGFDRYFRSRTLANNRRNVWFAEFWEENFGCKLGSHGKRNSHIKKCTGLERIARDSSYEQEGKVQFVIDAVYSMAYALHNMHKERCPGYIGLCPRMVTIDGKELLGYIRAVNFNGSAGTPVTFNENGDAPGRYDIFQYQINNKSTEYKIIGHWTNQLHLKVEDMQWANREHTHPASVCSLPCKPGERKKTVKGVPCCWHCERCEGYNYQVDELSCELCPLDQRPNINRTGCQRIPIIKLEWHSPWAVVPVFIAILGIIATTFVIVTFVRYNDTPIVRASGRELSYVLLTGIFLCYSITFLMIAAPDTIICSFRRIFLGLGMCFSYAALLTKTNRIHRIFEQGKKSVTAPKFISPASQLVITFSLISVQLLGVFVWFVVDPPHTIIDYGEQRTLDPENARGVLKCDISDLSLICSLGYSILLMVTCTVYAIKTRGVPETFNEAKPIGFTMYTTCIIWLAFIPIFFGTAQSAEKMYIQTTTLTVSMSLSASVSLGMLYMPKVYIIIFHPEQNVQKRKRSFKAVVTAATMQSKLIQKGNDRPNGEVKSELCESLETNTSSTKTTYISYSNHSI
Compound `O=C(COc1ccccc1)OCc1cc2ccccc2[nH]c1=O` returned a z-score of -0.181.

`CCn1c(SCC(=O)Nc2ccc(C(C)=O)cc2)nc2nc3c(cc2c1=O)CCCC3`: the z-score is -1.57.

On to `CCCC(=O)NC(=S)Nc1cccc(NC(=O)c2ccc(Cl)cc2Cl)c1`, for which the z-score is -0.0719.

`COc1ccc(C(=O)Nc2ccccc2C(=O)N(Cc2ccco2)C(C(N)=O)C(C)C)cc1` (stereo not drawn): the z-score was found to be 0.216.

The compound `CCOC(=O)Cc1nnc(NC(=O)c2ccccc2OC)s1` yielded a z-score of -0.102.

Compound `COc1ccc(NC(C)C(=O)Nc2ccc(C(C)(C)C)cc2)cc1Cl` (stereo not drawn) returned a z-score of -0.0816.

Compound `Cc1ccc(S(=O)(=O)N[C@H](C(=O)OCC(=O)N2N=C(c3ccc(Cl)cc3)CC2c2ccco2)C(C)C)cc1` (stereo partly drawn) displayed a z-score of -0.0385.

`Cc1cc(NC(=O)CSc2n[nH]c(-c3cccs3)n2)no1` came in with a z-score of -0.414.

For the compound `c1c2c(cc3sc(N4CCOCC4)nc13)OCO2`, the z-score is -0.293.

Consider `CCOc1ccc(N2C(=O)CC(n3ccc(C)n3)C2=O)cc1` (stereo not drawn), for which the z-score is 0.896.

`O=C(CN(c1ccc(Cl)c(C(F)(F)F)c1)S(=O)(=O)c1ccccc1)N1CCOCC1` had a z-score of 0.315.

Turning to `C=CCn1c(Sc2ccccc2)nc2c1c(=O)[nH]c(=O)n2C`, the z-score is -0.222.

`Cc1cccc(NC(=O)c2ccc(C3SCC(=O)N3CCc3ccccc3)cc2)c1` (stereo not drawn) registered a z-score of -0.349.

For the compound `Cc1onc(-c2ccccc2Cl)c1C(=O)Nc1nnc(Cc2ccc(Cl)cc2)s1`, the z-score is -0.0869.

In turn, `Cc1onc(-c2ccccc2Cl)c1C(=O)Nc1nnc(-c2cccc([N+](=O)[O-])c2)s1` gave a z-score of -0.386.

In the case of `CCS(=O)(=O)Nc1cccc(C2=NN(S(=O)(=O)c3ccccc3)C(c3cccs3)C2)c1` (stereo not drawn), the z-score was -0.425.

With `Cc1ccc(CN2CCN(/N=C/c3sccc3C)CC2)c(C)c1`, the z-score was 0.357.

In turn, `COc1cc(OC)cc(C(=O)Nc2ncc3c(n2)CC(C)CC3=O)c1` (stereo not drawn) had a z-score of -0.188.

The compound `O=c1[nH]c(CSc2ncccn2)nc2c1cnn2-c1ccccc1` showed a z-score of -1.65.

Regarding `CCOC(=O)c1cc(C)sc1/N=C/C1C(=O)CC(C)(C)CC1=O`, the z-score was -0.492.

`O=c1cc(CN2CCc3ccccc32)nc2sccn12` registered a z-score of 0.496.

Take `CC(C)c1ccc(S(=O)(=O)N2CCN(C(C)C(=O)Nc3ccccc3-c3ccccc3)CC2)cc1` (stereo not drawn): the z-score was -0.0239.

As to `COCC(=O)n1nc(-c2ccccc2)nc1NCc1ccc(F)cc1`, the z-score amounted to 0.19.

`CCC(CC)c1nnc(NC(=O)Oc2ccccc2)s1` yielded a z-score of -0.366.

`CC(=O)Nc1ccc(-c2ccccc2)s1` showed a z-score of 0.021.

As to `CCc1nnc(NC(=O)C2CCCN(c3nc4ccccc4s3)C2)s1` (stereo not drawn), the z-score was -0.0951.

Regarding `CCC(C)c1ccc(NC(=O)C2CCN(c3ncccn3)CC2)cc1` (stereo not drawn), the z-score was 1.06.

`Cc1cc(C)n(-c2ccc([N+](=O)[O-])cc2)n1` came in with a z-score of 0.27.

Take `O=C(N/N=C/c1ccc(O)cc1)c1nc(-c2ccccc2)n(-c2ccccc2)n1`: the z-score is -0.387.

`COc1cccc(NC(=O)C23CCC(C)(C(=O)O2)C3(C)C)c1` (stereo not drawn) came in with a z-score of 0.37.

Regarding `COC(=O)c1cc(S(=O)(=O)n2nc(C)c(Br)c2C)c(Cl)cc1Cl`, the z-score was -0.276.

Regarding `Cc1ccc(C)c(N(CC(=O)NCCC2=CCCCC2)S(C)(=O)=O)c1`, the z-score was -0.0583.

For the compound `CC1=NNC(=O)C1C(c1ccc(F)cc1)C(C#N)C#N` (stereo not drawn), the z-score was -0.411.

`Cc1ccc(NC(=O)c2cc(-n3cnnc3)ccc2Cl)cc1` showed a z-score of -0.0854.

As for `CCn1c(SCc2nc(-c3ccc(OC)c(OC)c3)no2)nnc1-c1cccs1`, the z-score is -1.5.

`CCCOc1ccccc1C(=O)N(Cc1cccs1)C1CCS(=O)(=O)C1` (stereo not drawn) came in with a z-score of 1.01.

Turning to `O=C1c2ccccc2C(=O)N1CCCc1nc(-c2ccccc2)no1`, the z-score stood at 0.115.

Compound `COn1c(=O)c(-c2ccc(Cl)cc2)[n+]([O-])c2ccccc21` returned a z-score of -0.503.

As to `Cc1cc(C)nc(NC(=NCCc2c[nH]c3ccccc23)NC(=O)Nc2ccc(Cl)cc2)n1`, the z-score worked out at 0.791.

Consider `Cc1ccc(S(=O)(=O)NCCC(=O)OCn2nnc3ccccc3c2=O)cc1`, for which the z-score was -0.242.

`Cc1cc(C)cc(-n2c(C)cc(/C=N\NC(=O)COc3cccc4cccnc34)c2C)c1` returned a z-score of -0.306.

Regarding `COC(=O)CSc1nnc(CSc2nc(C)cc(C)n2)n1Cc1ccco1`, the z-score was -0.942.

For the compound `Cc1onc(-c2ccccc2Cl)c1C(=O)Nc1cccnc1`, the z-score was 0.0438.

Compound `O=c1[nH]n(-c2ccc(F)cc2)c2ncccc12` displayed a z-score of -0.19.

As to `COC(=O)Nc1cc(C)nc2ccccc12`, the z-score is 0.301.

`CC(C)C(c1nnnn1Cc1ccc2c(c1)OCO2)N1CCN(c2ccccc2)CC1` (stereo not drawn): the z-score turned out to be 0.56.

`CC(C)C(C(=O)Nc1ccc(N2CCOCC2)cc1)N1C(=O)c2ccccc2C1=O` (stereo not drawn) gave a z-score of 0.0739.

In the case of `O=C(OC1CCS(=O)(=O)c2sccc21)c1ccccc1` (stereo not drawn), the z-score is -0.137.

Take `CCN(CC)S(=O)(=O)c1ccc(NC(=O)c2ccc(Sc3nncn3C)c([N+](=O)[O-])c2)cc1`: the z-score was -0.262.

The compound `O=C(COC(=O)c1nc(-c2ccccc2)n(-c2cccc(C(F)(F)F)c2)n1)NCc1cccs1` yielded a z-score of -1.35.

For the compound `O=C1CC(C(=O)O)c2ccccc2N1` (stereo not drawn), the z-score is -0.483.

Take `Cn1nnnc1SCC(=O)NCC(=O)c1ccccc1`: the z-score amounted to 0.594.

`O=C1c2ccccc2C(=O)N1CCCCSc1nc2ccccc2o1` returned a z-score of -0.155.

`CC1CCc2c(sc3nc(CN4CCN(S(=O)(=O)c5ccccc5[N+](=O)[O-])CC4)[nH]c(=O)c23)C1` (stereo not drawn) registered a z-score of -0.269.

Compound `O=C(NN=C1C2CC3CC(C2)CC1C3)c1cccc(S(=O)(=O)N2CCOCC2)c1` displayed a z-score of 0.288.

Consider `Cc1nn(C)c(C)c1CN(C)S(=O)(=O)c1ccc(F)cc1`, for which the z-score is -0.128.

The compound `CCOC(=O)/C(C#N)=C/c1cc2ccccc2nc1Cl` showed a z-score of -0.3.

Regarding `O=C1NC(c2ccc(Br)cc2)=N/C1=C/c1ccco1`, the z-score was -0.286.

The compound `CCOC(=O)C1=C(C)NC(=O)NC1c1ccsc1` (stereo not drawn) displayed a z-score of 0.00268.

For the compound `COc1ccc(NC(=O)CCS(=O)(=O)c2ccc3c(c2)CCCN3C(C)=O)cc1Cl`, the z-score is -0.13.

In turn, `COc1ccc(CNC(=O)C(OC(=O)c2ccco2)c2ccc(OC)cc2)cc1` (stereo not drawn) returned a z-score of -0.178.

Consider `CCNC(=O)NC(=O)C(C)OC(=O)c1oc2ccc(OCC)cc2c1C` (stereo not drawn), for which the z-score was found to be 1.56.

`O=C(NCCCn1ccnc1)C1CC2CCC1C2` (stereo not drawn): the z-score was -0.00499.

Regarding `CCOc1ccc(Cn2c3ccc(OC)cc3c3nc4ccccc4nc32)cc1OC`, the z-score is -0.0527.

Take `CC(C)CNC(=O)c1ccccc1NC(=O)c1ccccc1N(C)S(=O)(=O)c1ccccc1`: the z-score came out at 0.173.

`CC1CC2(CCCC2)N(C(=O)c2ccccc2)Cc2ccccc21` (stereo not drawn): the z-score was -0.259.

On to `Cc1cc2cc(C#N)c(NCCNC(=S)NCCCN3CCOCC3)nc2cc1C`, for which the z-score was 0.0244.

`COc1ccccc1N1CCN(C(=O)CSc2nnc(NC(=O)C3CCC3)s2)CC1`: the z-score was -0.511.

For the origin of these results see PubChem BioAssay AID488969 (Vanderbilt High Throughput Screening Facility, 2010).
